Source: the supplement of paper PMC3334620
Over roughly 33,000 sequences, “E-score (-0.5 to 0.5)” has its median near -0.056; the highest 2% begin near 0.38. The list shows a part of the results.

The sequences below were run against Stb4 (UniProt P50104) (assay: PBM E-score (8-mer binding enrichment) (E-score (-0.5 to 0.5)); higher = stronger / more preferred TF binding; most listed sequences are background and not binding sites). Settings: protein concentration: 200 nM; construct: GST-DNA-binding domain.
Summary of the method: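 E-scores (a modified Wilcoxon-Mann-Whitney statistic) were assigned by the Universal PBM Analysis Suite to every ungapped eight-base word pooled with its reverse complement. The input came from universal all-10-mer Agilent arrays made double-stranded by primer extension and probed with GST-tagged yeast transcription factors at about 100-200 nM. Fluorescent anti-GST detected bound protein, and masliner normalised the scans.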

In order of rising “PBM E-score” value:
1. CTTGAGAA  -0.366
2. GCTTGAGA  -0.312
3. CTCCAAGA  -0.311
4. CTATGGAG  -0.288
5. CCTGATAA  -0.282
6. CTAGACGA  -0.272
7. ACTCGAAC  -0.265
8. GTCAATGA  -0.264
9. TACTTTGA  -0.26
10. CAGGCTGC  -0.25
11. CCTAACAA  -0.248
12. CCACTCGA  -0.236
13. ATGCACTC  -0.228
14. CGTGGGCA  -0.226
15. CTGGCGAC  -0.225
16. CCATTGAG  -0.222
17. CCAGGAGA  -0.217
18. CATGGAGA  -0.204
19. CCCCTAAA  -0.201
20. AGGACAGA  -0.2
21. GTACTCAC  -0.2
22. ATTTATTG  -0.197
23. ACTGAGCT  -0.197
24. ATAGTTTA  -0.194
25. ATTTCGTA  -0.191
26. ACGCTGCT  -0.186
27. CTTCACTA  -0.186
28. CTGGAGTC  -0.182
29. ATGGTGAG  -0.179
30. TAGTGCCA  -0.179
31. CCATACGA  -0.173
32. AGGATTCA  -0.171
33. AACATTGA  -0.171
34. ACAGTGAT  -0.17
35. CGACTGTA  -0.169
36. ACCCCCCT  -0.168
37. AGTTAGGA  -0.167
38. ACCCTCAT  -0.161
39. AAAGACTT  -0.161
40. ACGCAAGT  -0.16
41. AACGAGTG  -0.157
42. TAACAGGA  -0.156
43. TCGATACA  -0.156
44. AAACTTAG  -0.152
45. ATTGTGTC  -0.151
46. GCTAGTGA  -0.15
47. CGTATCGA  -0.148
48. AGACTGCG  -0.148
49. TACTGTCA  -0.143
50. CATGGTAA  -0.14
51. AGTACCAC  -0.139
52. GCTGGGTA  -0.139
53. AGTTGTAA  -0.137
54. CGTGATCA  -0.134
55. GTTTTGAA  -0.133
56. TATCCTAA  -0.13
57. AACAGTAT  -0.129
58. CATAGATA  -0.126
59. GCTTCTAC  -0.121
60. ACTAGCAC  -0.12
61. TAGGTAGA  -0.12
62. CCAAGTGA  -0.117
63. ATAGGAAG  -0.113
64. ACAGATAG  -0.112
65. CAAGTTGA  -0.11
66. AAAGTTAA  -0.108
67. ATCAAGTA  -0.105
68. GACCAGTC  -0.104
69. GATCTCGC  -0.101
70. ACGCTAGA  -0.097
71. TATTCTGA  -0.0955
72. AGACTGGG  -0.0949
73. ATATGCTA  -0.0937
74. CGTCTCTA  -0.0888
75. GAATTGCA  -0.0881
76. CAAGGCGC  -0.0814
77. AAGCAGTC  -0.0806
78. GCAAATAA  -0.0794
79. CACGCATC  -0.0761
80. CCTTCAAA  -0.0719
81. ATTAGGAG  -0.0687
82. GTTGCCTA  -0.067
83. ATAGAAAG  -0.0667
84. TACTATGA  -0.0642
85. ACAATCTG  -0.064
86. GTGCGACA  -0.0629
87. AAGTAAGT  -0.0616
88. CCAGCTCC  -0.0562
89. AACCGTCA  -0.0559
90. AGTATGTA  -0.0544
91. GGGAAAGA  -0.0458
92. AGGAATGA  -0.0401
93. TAACGGTA  -0.0399
94. TAGTAAAA  -0.0383
95. GAGCGCTC  -0.0362
96. ATCGCACC  -0.0362
97. GACCATCA  -0.0356
98. AAGTTTAC  -0.0345
99. CCTCCCAA  -0.0335
100. CAATTCTC  -0.0291
101. GATGACCC  -0.0287
102. ACGTATAC  -0.0279
103. ACCCTCGT  -0.0252
104. GAACTAGA  -0.0244
105. AATCGTTA  -0.0223
106. ATCTGCCC  -0.0206
107. ATACCAAA  -0.0172
108. TAAAGATA  -0.0153
109. GGAGGAGA  -0.00987
110. TTGTCAAA  -0.00867
111. CGCCTAAC  -0.00571
112. ATATGCCC  -0.00474
113. AGTACGGC  -0.00308
114. ATGGAAGC  0.00369
115. CATGGCAC  0.00387
116. AGTTAGTC  0.00736
117. CTTGAATA  0.0123
118. CAGACATC  0.0141
119. ATTCCCAG  0.0187
120. AACTTCTC  0.0267
121. GTTGGACA  0.0335
122. AGCAATGG  0.0364
123. AGGAACTA  0.0365
124. CTTTCCAC  0.0376
125. ATACCTAC  0.0401
126. CGGCGCAG  0.0459
127. GTATTAAA  0.0474
128. ACTTATGG  0.0497
129. ATGCCAGG  0.0545
130. CGTGAGAA  0.0572
131. CAAATTGC  0.0591
132. ATACCGCG  0.0592
133. AAGTAAAG  0.0625
134. AACGGCAG  0.0735
135. AAAATGCG  0.0746
136. CTGAGATA  0.0767
137. ACTTATAC  0.079
138. GGAGTTTA  0.0943
139. CATCGCTC  0.0959
140. TTCGCGAA  0.104
141. GGATCGCA  0.109
142. CGAAATGC  0.124
143. CTGCCGCC  0.127
144. AACCTTCG  0.144
145. ATTTTATA  0.15
146. AATTGCGC  0.157
147. GGCGTACC  0.157
148. AAGGTTCC  0.166
149. AGTCGGAC  0.176
150. ACACCGGC  0.182
151. GGCTAGTA  0.2
152. CGCGGGAC  0.208
153. AACGTTCC  0.21
154. CCGGTGAC  0.21
155. ACACCGGG  0.213
156. CCGATTTC  0.274
157. GGCGGTAA  0.275
158. CTCCGATA  0.275
159. TCCACGGA  0.275
160. GGGTGCAA  0.279
161. CCGGTTAG  0.287
162. AATGCGGG  0.31
163. CCGATAAC  0.32
164. ACCGAGGA  0.323
165. GCCGATAC  0.328
166. CCCCGCCC  0.337
167. GGGTCCGA  0.344
168. ACTTCCCG  0.354
169. CTACCGAA  0.365
170. ATACTCCG  0.365
171. CGGAAAGC  0.386
172. CACTTCCG  0.397
